The source gives no read counts; variants with many changes may rest on few reads.

B1: CPEB3 Ribozyme (parent)
chain: UAACAGGGGGCCACAGCAGAAGCGUUCACGUCGCAGCCCCUGUCAGAUUCUGGUGAAUCUGCGAAUUCUGCUGUAUAUCUC

Variants of B1 are the subject of the data set. As to the kind of experiment: self-cleavage, relative activity (ratio to wild type); higher = more cleavage; in vitro, sequencing. Put shortly:
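Relative activity was defined as the cleaved/total read fraction for a variant divided by the same fraction for the unmutated ribozyme. CPEB3 self-cleaving ribozyme libraries were made by rounds of error-prone PCR, barcoded, and transcribed in vitro with T7 RNA polymerase for 5 hours at 37°C, and cleavage ran through transcription plus a 15 min DNase I step before EDTA. Illumina sequencing of template-switched reverse transcripts gave the reads, and DNA sequencing mapped the barcodes. Averages come from three batches, using variants with at least 5 reads.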
With UAACAGGGGGCCACAGCAGAAGCGUUCAUGUCGCAGCCUCUGUCCUAUUCUGGUGAGUCUGCGGAUUCUGCUGUAUAUCUC [C29U C39U A45C G46U A57G A64G], the self-cleavage came to 0.
UAACAGGGGGCCACAGCAGAAGCGUUCACACCGCAGCCCCUGUCAGAUUCUGGUGAAUAUGCGAAUUCUGCUGUAUAUCUC [G30A U31C C59A]: the self-cleavage was 0.07.
For the variant UAACAGGGGGCCACAGCAGAAGCGUUCAUGUCGCAGCCCCUGUCAGAUUCUGGUGACUCUGCGAAUACUGCUGUAUAUCUC [C29U A57C U67A], the self-cleavage amounted to 0.13.
Take UAACAGGGGGCCACAGCAGAAGCGUUCACAUCGCAGCACCUGUCAGAUUCUGGUGAAUCUGCGAUUUCUGCUGUAUAUCUC [G30A C38A A65U]: the self-cleavage is 0.13.
For UAACAGGGGGCCACAGCAGAAGCGUUCAUGUCGUAGCCCCUGCCAGACUCUGGUGAAUCUGCGAAUUCUGCUGUAUAACUC [C29U C34U U43C U48C U78A] the value was 0.11; for UAACAGGGGGCCACAGCAGAAGCGUUCACAUCGCAGCCCCUGUCAGAUUAUGGUGAAUCUGCGAAUUCUGCUGCAUACCUC [G30A C50A U74C U78C], 0.06; for UAACAGGGGGCCACAGCAGAAGCGUUCACAUCGCAGCCCCUGUCAGAUUCCGGUGUAUCCGCGAAUUCUGCUGUAUAUCUC [G30A U51C A56U U60C], 0.08.
In the case of UAACAGGGGGCCACAGCAGAAGCGUUCACUACGCAGCCCCUGUCAGAUUCUGGUGAAUCUGCGGAUUCAGCUGUAUAUCUC [G30U U31A A64G U69A], the self-cleavage worked out at 0.17.
On to UAACAGGGGGCCACAGCAGAAGCGUUCACAACGCAGCCCCUGUCAGAUUCUGGUCAAUCUGCGAACUCUGCUGUAUAUCUC [G30A U31A G55C U66C], for which the self-cleavage stood at 0.17.
The figure for UAACAGGGGGCCACAGCAGAAGCGUUCAUGUCGCAGCCCCUGUCAGAUCCUGGUGAAUCUGCGAGUUCUGCUGUAUAUCUC [C29U U49C A65G] is 0.3; for UAACAGGGGGCCACAGCAGAAGCGUUCACAUCGCAGCCCCUGCCGGACUCUGGUGAAUCUGCGAAUUCUGCUGUAUAUCUC [G30A U43C A45G U48C] it is 0.07.
For UAACAGGGGGCCACAGCAGAAGCGUUCAUGUCGCAGCCCCUGUCAGUUUCUGGUGAAUCUGCGAAUUCAGCUGUAUAUCUC [C29U A47U U69A] the value was 0.14; for UAACAGGGGGCCACAGCAGAAGCGUUCACCUCGCAGCCCCUGUCAGACUCUGGUGAAUCUGCGAAUACUGCUGUAUAUCUC [G30C U48C U67A], 0.13.
On to UAACAGGGGGCCACAGCAGAAGCGUUCACAUCGCAGCCCCUGUCAGAUUCUGGUGAAUCUGCGAAUUCUGCCGUGUAUCUC [G30A U72C A75G], for which the self-cleavage amounted to 0.09.
Turning to UAACAGGGGGCCACAGCAGAAGCGUUCACCUCGCAGCCCCUGUCAGACUCUGGUGAAACUGCGAAUUCUCCUGUAUAUCUC [G30C U48C U58A G70C], the self-cleavage came to 0.09.
Take UAACAGGGGGCCACAGCAGAAGCGUUCACCUCGCGGCCCCUGUCAGACUCUGGUGAAUCUGCGAAUUCUGCUGUAUAUCUC [G30C A35G U48C]: the self-cleavage turned out to be 0.11.
For UAACAGGGGGCCACAGCAGAAGCGUUCAUGUCGCAGCCCCUGUCAGAUUCUGGUGGAUCUGCGAAUUCUGCCGUAUACCUC [C29U A56G U72C U78C], the self-cleavage was determined as 0.33.
For UAACAGGGGGCCACAGCAGAAGCGUUCAUGACGCAGCCCCUGUCAGAUUCUGGUGAAUCUGCGUAUUCUGCUGUAUAUCUC [C29U U31A A64U] the value was 0.23; for UAACAGGGGGCCACAGCAGAAGCGUUCACAUCGCGGCCCCUGUCAGAUCCUUGUGAAUCUGCGAAUUCUGCUGCACAUCUC [G30A A35G U49C G52U U74C U76C], 0.07.
The figure for UAACAGGGGGCCACAGCAGAAGCGUUCACAUCGCAGCCCCUGUCAGACUCUGGUUAAUCCGCGAUUUCUGCUGUAUAUCUC [G30A U48C G55U U60C A65U] is 0.33; for UAACAGGGGGCCACAGCAGAAGCGUUCAUGUCGCAGCCCCUGUCAAAUUCUGGUGAAUCUGCGAAUUCUGCUGCAUAUCUC [C29U G46A U74C] it is 0.09; for UAACAGGGGGCCACAGCAGAAGCGUUCAUGUCGCAGACCCCGUCAGAUUCAGGUGAAUCUGCGAAUUCUGCUGUAUAUCUC [C29U C37A U41C U51A] it is 0.25.
For UAACAGGGGGCCACAGCAGAAGCGUUCACAUCGCAGCCCCUGGCAGAUUCCGGUGAAUCUGCGAAUUCUGCCGUAUAUCUC [G30A U43G U51C U72C] the value was 0.1; for UAACAGGGGGCCACAGCAGAAGCGUUCACAUCGCUGCCCCUGUCAGAUCCUGGUGAAUCUGCGAAUUCUGCUGUAUAUCUC [G30A A35U U49C], 0.1.
For UAACAGGGGGCCACAGCAGAAGCGUUCAUGCCGCAGCCCCUGUCUGAUUCCGGUGAAUCUGCGAAUUCUGCUGUAUAACUC [C29U U31C A45U U51C U78A], the self-cleavage was 0.13.
Regarding UAACAGGGGGCCACAGCAGAAGCGUUCACAUCGCAGCCCCUGUCUGAUUCUGUCGAAUCUGCGAAUUCUGCUGUAUAUCUC [G30A A45U G53U U54C], the self-cleavage was found to be 0.13.
Regarding UAACAGGGGGCCACAGCAGAAGCGUUCACAUCGCAGCCCCUGGCAGAUUCUGGUGAAUCUGCGAAUUCAGCUGUGUAUCAC [G30A U43G U69A A75G U80A], the self-cleavage worked out at 0.12.
In the case of UAACAGGGGGCCACAGCAGAAGCGUUCACAUCGCAGCCACUGUCGGAUUCUGGUGAAUCUGCGAAUUCUGCUGUAUAUCUC [G30A C39A A45G], the self-cleavage is 0.38.
In the case of UAACAGGGGGCCACAGCAGAAGCGUUCACUUCGCAGCCCCUGUCGGAUUCUGGUGAAUCUGCGAAUACUGCUGUAUAUCUC [G30U A45G U67A], the self-cleavage is 0.13.
In the case of UAACAGGGGGCCACAGCAGAAGCGUUCACCCCGCAGCCCCUGUCAGAUCCUGGUGAAUCUGCGAAUUCUGCUGUAUAUCUC [G30C U31C U49C], the self-cleavage is 0.08.
The figure for UAACAGGGGGCCACAGCAGAAGCGUUCAUGUCGCAGCCCCUGUCAGAUUCUGGUGAAUCUGCGAAUUCUGCUGUGAAUCUC [C29U A75G U76A] is 0.5.
The figure for UAACAGGGGGCCACAGCAGAAGCGUUCACAUCGCUGCCCCUGUCGGAUUCUGGUGAAGCAGCGAAUUCUGCUGUAUAUCUC [G30A A35U A45G U58G U60A] is 0.05; for UAACAGGGGGCCACAGCAGAAGCGUUCAUGUCGCAGCCCCUGUCAGGUUCCGGUGAAUCUGCGAAUUCUGCUGUAUAUCAC [C29U A47G U51C U80A] it is 0.29; for UAACAGGGGGCCACAGCAGAAGCGUUCAUGUCGCAGCCCCUGUCCGACUCUGGUGAAUCUGCGAAUUCUGCUGUAUACCUC [C29U A45C U48C U78C] it is 0.06.

For the origin of these results see the RNAGym collection of RNA variant scans (doi:10.1093/nar/gkz1192).
